Experimental data reported in the supplement of paper PMC5998384.

Experiments:
HeLa Kyoto [1] = assay: melting temperature (median over replicates), in situ; higher = more thermally stable
HeLa Kyoto [2] = assay: solubility change mitosis vs G1/S (difference of NP-40 vs SDS log2 ratios) (log2 ratio difference); higher = more soluble in mitosis
HeLa Kyoto [3] = assay: solubility in G1/S (NP-40 vs SDS abundance) (log2 ratio); higher = more soluble; details: cell cycle stage: G1/S
HeLa Kyoto [4] = assay: thermal stability score vs G1/S (z-score of summed log2 fold changes over temperatures); higher = more thermally stable than in G1/S
[5] = cell cycle stage: early G1 (4.5 h after nocodazole release)
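Wherever melting temperature (median over replicates), in situ is given: HeLa Kyoto cells synchronized by double thymidine or nocodazole block, proteins quantified by TMT10plex mass spectrometry, three independent biological replicates.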
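Wherever solubility change mitosis vs G1/S (difference of NP-40 vs SDS log2 ratios) is given: synchronized HeLa Kyoto cells (double thymidine block for G1/S, nocodazole release for mitosis), protein amounts in NP-40 versus SDS lysates quantified by mass spectrometry, three biological replicates.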
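Wherever solubility in G1/S (NP-40 vs SDS abundance) is given: HeLa Kyoto cells arrested at G1/S by double thymidine block, proteins quantified by TMT10plex mass spectrometry in mild NP-40 versus SDS extracts, three biological replicates.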
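Wherever thermal stability score vs G1/S (z-score of summed log2 fold changes over temperatures) is given: synchronized HeLa Kyoto cells, proteins quantified by TMT10plex mass spectrometry, three biological replicates, mitosis taken 0.5 h after nocodazole release, G1/S directly after double thymidine block.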

Row | Substance | melting temperature (HeLa Kyoto [1]; cell cycle stage: G1/S) | melting temperature (HeLa Kyoto [1]; cell cycle stage: mitosis) | solubility change mitosis (log2) (HeLa Kyoto [2]) | solubility in G1/S (log2) (HeLa Kyoto [3]) | thermal stability score (HeLa Kyoto [4]; [5]) | thermal stability score (HeLa Kyoto [4]; cell cycle stage: mitosis)
1 | COX4I1 (sequence left out) | 54.6 °C | 53.6 °C | 0.0135 | 0.145 | -4.41 | -3.88
2 | EIF3E (sequence left out) | 49 °C | 48 °C | -0.114 | -0.416 | 0.398 | 2.01
